# Test results reported in ChEMBL document CHEMBL4888484, “Replenishing the malaria drug discovery pipeline: Screening and hit evaluation of the MMV Hit Generation Library 1 (HGL1) against asexual blood stage Plasmodium falciparum ,using a nano luciferase reporter read-out” (2022).
# Hit rate of the full screen: of about 150,000 compounds, about 540 (0.36%) showed an effect of 50% or more. Some of the results follow.
# Test system: Plasmodium falciparum
# Assay: Primary screen in NF54 nanoGlo assay, in single point, at 2uM, 72h; a lower Z score goes with more inhibition
# Assay type: functional, Erythrocyte
# Details: timepoint 72 hour
Compound,% Inhibition [%],Z score
CC(C)[C@@H](C(=O)N1Cc2cncnc2C1)c1ccc(F)cc1,0,-0.03
CC(C)c1ccc(C(=O)N[C@@H](CO)c2ccnn2C)s1,-13,1.72
COCC1(N(C)C(=O)[C@H]2CCC(=O)N(c3cnn(C)c3)C2)CCC1,-8,1.04
COCCC(=O)N[C@@H](C)c1cnn(-c2ccc(OC)cc2)c1,-4,0.76
Cc1nsc(N2CC3OCCN(Cc4ccccc4)C3C2)n1 (stereo not drawn),-9,1.14
Cc1cc(Br)ccc1S(=O)(=O)N[C@@H](C)CO,0,-0.03
CC(C)(C(=O)N1CCN([C@H]2CCCCNC2=O)CC1)c1ccccc1,1,-0.19
Cc1ccc(-c2noc(C3CC34CCOC4)n2)cc1N1CCCC1 (stereo not drawn),2,-0.26
CCc1cccc(N2C(=O)c3cc(-c4cccs4)nn3C[C@@]2(C)C(=O)NCc2ccc(C)cc2)c1,-10,1.51
c1cc(CN2CC[C@]3(CCOC3)C2)c2cc[nH]c2c1,-5,0.48
O=C(NCCn1ccnc1-c1ncccn1)NCc1cccs1,9,-1.1
CCC(C)N1C(=O)C(Cc2ccccc2)NC12CCN(C(=O)c1ccc(C)cc1)CC2 (stereo not drawn),-6,1
Cc1nnc2n1C[C@@H](Nc1cnc3ccccc3n1)CC2,-5,0.68
O=C(Nc1cccs1)N1CC[C@H](c2ccc3c(c2)OCO3)C1,-1,0.21
COc1ccc(N[C@H]2CCCN(C(=O)c3ccc4ncccc4c3)C2)cc1OC,5,-0.56
Cc1ccc(O[C@H]2CCCN(C(=O)c3cnc4ccccc4n3)C2)nn1,-13,2.14
CC(C)=CCN1CCN(C(=O)c2cnccc2C)[C@H]2CS(=O)(=O)C[C@H]21,-6,0.79
c1cncc(COC2CCN(Cc3ccc(Cn4cccn4)cc3)CC2)c1,-3,0.59
Cc1ccc2c(c1)CN(Cc1ccc(C)s1)C[C@H](C)O2,6,-0.79
O=C(CN(Cc1ccccn1)C1CC1)N1CCCCCC1,-1,0.07
CCC(C(N)=O)N(C)CC1CCCCC1O (stereo not drawn),-6,0.82
C[C@@H](CCc1cccn1C)NC(=O)Nc1nnc2ccccn12,2,-0.19
Cc1cc(C)cc(CN2CCN(C(=O)c3ccc(C)c(F)c3F)CC2=O)c1,-14,2.77
CCC[C@@](C)(CO)NC(=O)c1ccc(F)cc1C,-2,0.47
CC(C)c1nnc([C@H](C)NC(=O)c2ccn(C(F)F)n2)o1,1,-0.14
CC1(C)CC(NC(=O)Cn2c(COc3ccccc3)nc3ccccc32)CC(C)(C)N1,-2,0.3
Cn1cccc1-c1noc([C@H]2CCN(C(=O)c3nccc4ccccc34)C2)n1,-15,1.92

Compound,% Inhibition [%],Z score
CC(CN(C)C(=O)OC(C)(C)C)C(=O)N1CC(NC2CCOC2)C1 (stereo not drawn),12,-1.69
CC[C@@H](C(=O)O)N1CCC(N2CCc3ccccc32)CC1,-4,0.62
Cc1c(C(=O)N[C@@H]2CCC[C@@H]2n2ccnc2)ccn1Cc1ccccc1,-2,0.45
O=C(O)c1c2c(nc3ccc(S(=O)(=O)N4CCC(C(=O)N[C@H]5CCCc6ccccc65)CC4)cc13)CCCC2,-8,1.23
CCCN(CCC)S(=O)(=O)Cc1ccccc1,-8,0.99
CN(Cc1cnccn1)C(=O)Cn1ccc2ccccc21,-6,0.66
CCCC1(CCC)NC(=O)N([C@@H](C)C(=O)Nc2ccc(N3CCOCC3)cc2)C1=O,-4,0.55
COC(=O)C[C@H](NC(C)=O)C(=O)Nc1cccc2c1OC(C)(C)CC2,26,-3.32
CN(C(=O)N1CCN(C(=O)N(C)c2ccccc2)CC1)c1ccccc1,-11,1.42
Cc1ccc(C(=O)NC(c2ccc3c(c2)CCO3)[C@H]2C[C@@H](O)C2)c(F)c1 (stereo partly drawn),-11,1.7
C[C@@]1(C(=O)NC2CCCCCCC2)CCC(=O)N1Cc1ccccc1,-1,0.1
O=C(Cc1ccc(F)cc1)N1CCN(c2nc3ccccc3c3nnc(-c4ccco4)n23)CC1,1,-0.08
Cc1nc2ccc(-n3ncnc3[C@H]3CCCS(=O)(=O)C3)cc2s1,-14,1.94
O=C(c1cc(C2CC2)on1)N(Cc1ccco1)C1CC1,-13,1.31
CC(C)n1ncc2[nH]c(-c3ccc(-c4ccccn4)cc3)nc21,3,-0.39
CC(C)(NC(=O)[C@H](O)c1ccccc1)C1CC1,-16,1.91
CS(=O)(=O)N1C[C@H]2CN(Cc3cc(Br)ccc3F)CC[C@@]2(CO)C1,0,-0.04
C#CCN(Cc1nncn1C)CC1CC1,-4,0.67
CN1CC[C@](C)(CNC(=O)c2cn(CCc3ccccc3)cc(C(=O)O)c2=O)C1,1,-0.16
c1csc([C@H]2NCCn3cccc32)c1,-22,2.83
COCCc1nnc2n1CCC1(CC2)CCN(C(=O)C(C)C)CC1,-6,0.59
Cc1nc(-c2ccccc2)nc2[nH]c(-c3ccccc3)cc12,-4,0.51
COc1ccnc(CN(C)Cc2c(C)noc2C)c1OC,-6,0.99
O=C([C@H]1CCc2nccn2C1)N1Cc2cccnc2C1,-11,2.01
CCOC(=O)c1cnn(-c2nc(-c3ccc(OC)cc3)cs2)c1CN(C)Cc1cc(C)no1,-12,1.38
C=CCNC(=O)N(Cc1ccc(F)cc1)c1cccc(CC(=O)NCc2ccc(F)cc2)c1,-9,0.86
CC1CCC(NC(=O)CON=C(N)c2ccc(OCc3ccccc3)cc2)CC1 (stereo not drawn),-13,2.27
